This note sets out measurements from paper PMC10497406.

Protein sequences, listed by entry. Tags and fused reporters are not part of them.
UniProt Q6KC79: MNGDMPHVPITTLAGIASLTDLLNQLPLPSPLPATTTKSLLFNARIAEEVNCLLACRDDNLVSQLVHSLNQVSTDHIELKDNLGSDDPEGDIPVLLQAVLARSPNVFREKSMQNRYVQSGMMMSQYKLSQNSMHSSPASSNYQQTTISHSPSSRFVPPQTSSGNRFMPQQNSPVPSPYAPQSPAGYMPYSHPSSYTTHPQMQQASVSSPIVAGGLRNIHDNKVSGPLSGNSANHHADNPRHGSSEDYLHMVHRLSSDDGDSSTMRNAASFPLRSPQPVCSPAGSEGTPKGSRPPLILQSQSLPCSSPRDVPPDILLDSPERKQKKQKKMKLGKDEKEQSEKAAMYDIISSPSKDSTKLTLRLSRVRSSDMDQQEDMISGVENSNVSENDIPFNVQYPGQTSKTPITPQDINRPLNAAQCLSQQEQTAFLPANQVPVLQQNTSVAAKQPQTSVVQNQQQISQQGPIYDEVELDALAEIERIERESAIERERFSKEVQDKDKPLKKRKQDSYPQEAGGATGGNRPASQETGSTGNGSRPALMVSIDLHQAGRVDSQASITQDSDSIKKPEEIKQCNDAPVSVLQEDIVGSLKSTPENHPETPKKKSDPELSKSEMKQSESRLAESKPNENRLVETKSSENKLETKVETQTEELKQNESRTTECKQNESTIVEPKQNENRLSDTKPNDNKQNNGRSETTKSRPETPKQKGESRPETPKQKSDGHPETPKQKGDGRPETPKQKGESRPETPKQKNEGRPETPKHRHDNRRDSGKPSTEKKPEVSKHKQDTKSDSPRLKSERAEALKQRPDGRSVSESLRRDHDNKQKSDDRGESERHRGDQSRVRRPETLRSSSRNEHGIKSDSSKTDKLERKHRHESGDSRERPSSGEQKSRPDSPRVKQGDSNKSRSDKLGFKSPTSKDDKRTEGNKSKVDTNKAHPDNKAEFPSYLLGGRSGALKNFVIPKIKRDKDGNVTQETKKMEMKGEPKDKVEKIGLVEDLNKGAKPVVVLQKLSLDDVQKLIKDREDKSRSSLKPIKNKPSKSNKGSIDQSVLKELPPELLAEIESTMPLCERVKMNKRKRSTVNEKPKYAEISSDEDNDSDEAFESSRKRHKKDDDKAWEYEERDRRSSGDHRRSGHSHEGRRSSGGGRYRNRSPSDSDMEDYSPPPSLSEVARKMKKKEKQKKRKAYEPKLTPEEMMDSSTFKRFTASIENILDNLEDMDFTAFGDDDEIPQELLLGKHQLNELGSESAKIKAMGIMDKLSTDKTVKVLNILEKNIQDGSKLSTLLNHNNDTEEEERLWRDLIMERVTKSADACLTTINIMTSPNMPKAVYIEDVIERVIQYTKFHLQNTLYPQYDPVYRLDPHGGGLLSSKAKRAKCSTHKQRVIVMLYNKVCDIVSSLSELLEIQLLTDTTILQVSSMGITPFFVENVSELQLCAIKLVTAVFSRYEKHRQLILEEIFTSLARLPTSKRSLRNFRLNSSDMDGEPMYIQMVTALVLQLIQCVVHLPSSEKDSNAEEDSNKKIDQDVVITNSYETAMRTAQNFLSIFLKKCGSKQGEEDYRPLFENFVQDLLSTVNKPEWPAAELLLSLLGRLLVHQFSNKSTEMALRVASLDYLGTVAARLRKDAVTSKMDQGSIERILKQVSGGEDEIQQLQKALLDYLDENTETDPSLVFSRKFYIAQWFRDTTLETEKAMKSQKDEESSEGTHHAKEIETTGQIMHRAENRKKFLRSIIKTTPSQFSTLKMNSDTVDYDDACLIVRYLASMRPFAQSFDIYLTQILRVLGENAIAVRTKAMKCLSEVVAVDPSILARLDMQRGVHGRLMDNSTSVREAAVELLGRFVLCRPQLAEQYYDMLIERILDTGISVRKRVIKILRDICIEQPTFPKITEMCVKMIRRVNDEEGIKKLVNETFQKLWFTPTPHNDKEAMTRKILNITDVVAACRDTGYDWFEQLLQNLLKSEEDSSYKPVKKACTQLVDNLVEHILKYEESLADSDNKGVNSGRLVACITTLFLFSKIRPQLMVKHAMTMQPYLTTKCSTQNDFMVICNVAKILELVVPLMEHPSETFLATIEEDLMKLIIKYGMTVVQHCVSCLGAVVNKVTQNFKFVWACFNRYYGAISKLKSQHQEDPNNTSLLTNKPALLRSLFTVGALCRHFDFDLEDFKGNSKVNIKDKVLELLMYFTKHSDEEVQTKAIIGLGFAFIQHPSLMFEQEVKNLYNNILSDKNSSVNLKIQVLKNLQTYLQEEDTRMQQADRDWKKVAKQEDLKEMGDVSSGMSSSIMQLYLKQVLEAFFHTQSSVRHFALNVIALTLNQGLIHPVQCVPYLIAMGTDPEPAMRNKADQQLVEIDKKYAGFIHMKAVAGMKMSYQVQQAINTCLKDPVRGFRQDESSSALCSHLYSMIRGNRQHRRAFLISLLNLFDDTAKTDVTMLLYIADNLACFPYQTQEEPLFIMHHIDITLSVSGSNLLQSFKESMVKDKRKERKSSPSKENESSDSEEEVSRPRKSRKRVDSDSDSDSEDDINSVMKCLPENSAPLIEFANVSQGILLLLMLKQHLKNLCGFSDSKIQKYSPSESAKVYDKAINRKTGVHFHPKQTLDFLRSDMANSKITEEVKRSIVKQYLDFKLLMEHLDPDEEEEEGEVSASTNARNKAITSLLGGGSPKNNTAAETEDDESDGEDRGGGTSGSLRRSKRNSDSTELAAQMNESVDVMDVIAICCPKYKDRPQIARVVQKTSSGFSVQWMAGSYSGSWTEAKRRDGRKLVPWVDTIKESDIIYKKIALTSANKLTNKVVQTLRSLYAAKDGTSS
UniProt P15873: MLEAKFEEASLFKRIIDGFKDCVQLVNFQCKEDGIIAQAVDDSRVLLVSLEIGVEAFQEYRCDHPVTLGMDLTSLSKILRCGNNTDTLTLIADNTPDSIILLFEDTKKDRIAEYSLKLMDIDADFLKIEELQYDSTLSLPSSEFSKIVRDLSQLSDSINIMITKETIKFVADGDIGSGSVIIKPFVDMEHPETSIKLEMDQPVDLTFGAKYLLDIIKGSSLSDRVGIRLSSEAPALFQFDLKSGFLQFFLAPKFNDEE
UniProt P12004: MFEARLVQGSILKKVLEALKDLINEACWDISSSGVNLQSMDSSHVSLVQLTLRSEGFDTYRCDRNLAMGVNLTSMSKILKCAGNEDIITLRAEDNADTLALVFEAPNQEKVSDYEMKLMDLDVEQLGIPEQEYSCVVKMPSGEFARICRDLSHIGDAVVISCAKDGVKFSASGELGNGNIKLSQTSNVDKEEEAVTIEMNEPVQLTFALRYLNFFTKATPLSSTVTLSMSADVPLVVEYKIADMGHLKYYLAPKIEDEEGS

These are yes or no findings as the source states them, for the method shown. For some of these results: Binding seen in cells or lysates may run through a third protein. Some results given as binding are weak or reduced against the parent protein; the word gives no strength. For some of these results: Tags and fused reporters may be left off the sequences shown.

Test [1] addresses T1, GST–Scc2^C1100-168aa (Scc2 from residue 394 with the last 168 amino acids truncated, fused to GST) (S. cerevisiae) (UniProt Q04002).
T1 sequence: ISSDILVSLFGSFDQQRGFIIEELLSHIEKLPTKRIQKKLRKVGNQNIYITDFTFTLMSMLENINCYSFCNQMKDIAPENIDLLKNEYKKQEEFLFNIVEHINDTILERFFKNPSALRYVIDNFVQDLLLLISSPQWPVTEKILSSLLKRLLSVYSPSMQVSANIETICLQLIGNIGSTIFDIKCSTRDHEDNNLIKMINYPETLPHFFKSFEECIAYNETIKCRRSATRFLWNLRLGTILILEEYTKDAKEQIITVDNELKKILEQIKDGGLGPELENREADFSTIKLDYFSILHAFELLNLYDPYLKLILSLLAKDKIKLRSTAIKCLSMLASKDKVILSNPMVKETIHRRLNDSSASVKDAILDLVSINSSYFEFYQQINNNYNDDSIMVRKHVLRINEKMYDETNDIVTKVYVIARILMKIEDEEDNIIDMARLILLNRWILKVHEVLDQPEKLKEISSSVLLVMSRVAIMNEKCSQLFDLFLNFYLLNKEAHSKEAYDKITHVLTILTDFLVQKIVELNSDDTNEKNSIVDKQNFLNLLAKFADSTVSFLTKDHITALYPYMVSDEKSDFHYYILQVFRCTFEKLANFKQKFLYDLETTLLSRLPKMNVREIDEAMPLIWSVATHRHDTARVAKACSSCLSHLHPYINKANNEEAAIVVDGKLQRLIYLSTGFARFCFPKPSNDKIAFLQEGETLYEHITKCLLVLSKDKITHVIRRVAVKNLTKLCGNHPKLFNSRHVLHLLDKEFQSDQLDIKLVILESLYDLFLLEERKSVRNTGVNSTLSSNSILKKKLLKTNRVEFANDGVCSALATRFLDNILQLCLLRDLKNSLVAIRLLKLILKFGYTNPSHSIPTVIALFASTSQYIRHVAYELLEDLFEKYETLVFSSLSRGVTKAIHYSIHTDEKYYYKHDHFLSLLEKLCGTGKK
Kind of test: pull-down; GST–Scc2 fusions on glutathione Sepharose 4B beads, purified His-tagged yeast Pol30 (2.5 μg) in 0.7 ml binding buffer (1× PBS, 150 mM NaCl, 1% Triton X-100), overnight at 4 °C; western blot with anti-Pol30; both purified. A general note: Immunoblotting shows a protein as a band on a membrane.

The target in test [2] is T2, GST–Scc2pip (Scc2 residues 1476–1493 with PIP mutated, fused to GST) (S. cerevisiae) (UniProt Q04002).
T2 sequence: YSSAGKALTAARKHVKDT
The description is as above.

Test [3] has as its target T3, N-terminally 7His8Flag (HF)-tagged Scc2^E822K (S. cerevisiae) (UniProt Q04002).
T3 sequence: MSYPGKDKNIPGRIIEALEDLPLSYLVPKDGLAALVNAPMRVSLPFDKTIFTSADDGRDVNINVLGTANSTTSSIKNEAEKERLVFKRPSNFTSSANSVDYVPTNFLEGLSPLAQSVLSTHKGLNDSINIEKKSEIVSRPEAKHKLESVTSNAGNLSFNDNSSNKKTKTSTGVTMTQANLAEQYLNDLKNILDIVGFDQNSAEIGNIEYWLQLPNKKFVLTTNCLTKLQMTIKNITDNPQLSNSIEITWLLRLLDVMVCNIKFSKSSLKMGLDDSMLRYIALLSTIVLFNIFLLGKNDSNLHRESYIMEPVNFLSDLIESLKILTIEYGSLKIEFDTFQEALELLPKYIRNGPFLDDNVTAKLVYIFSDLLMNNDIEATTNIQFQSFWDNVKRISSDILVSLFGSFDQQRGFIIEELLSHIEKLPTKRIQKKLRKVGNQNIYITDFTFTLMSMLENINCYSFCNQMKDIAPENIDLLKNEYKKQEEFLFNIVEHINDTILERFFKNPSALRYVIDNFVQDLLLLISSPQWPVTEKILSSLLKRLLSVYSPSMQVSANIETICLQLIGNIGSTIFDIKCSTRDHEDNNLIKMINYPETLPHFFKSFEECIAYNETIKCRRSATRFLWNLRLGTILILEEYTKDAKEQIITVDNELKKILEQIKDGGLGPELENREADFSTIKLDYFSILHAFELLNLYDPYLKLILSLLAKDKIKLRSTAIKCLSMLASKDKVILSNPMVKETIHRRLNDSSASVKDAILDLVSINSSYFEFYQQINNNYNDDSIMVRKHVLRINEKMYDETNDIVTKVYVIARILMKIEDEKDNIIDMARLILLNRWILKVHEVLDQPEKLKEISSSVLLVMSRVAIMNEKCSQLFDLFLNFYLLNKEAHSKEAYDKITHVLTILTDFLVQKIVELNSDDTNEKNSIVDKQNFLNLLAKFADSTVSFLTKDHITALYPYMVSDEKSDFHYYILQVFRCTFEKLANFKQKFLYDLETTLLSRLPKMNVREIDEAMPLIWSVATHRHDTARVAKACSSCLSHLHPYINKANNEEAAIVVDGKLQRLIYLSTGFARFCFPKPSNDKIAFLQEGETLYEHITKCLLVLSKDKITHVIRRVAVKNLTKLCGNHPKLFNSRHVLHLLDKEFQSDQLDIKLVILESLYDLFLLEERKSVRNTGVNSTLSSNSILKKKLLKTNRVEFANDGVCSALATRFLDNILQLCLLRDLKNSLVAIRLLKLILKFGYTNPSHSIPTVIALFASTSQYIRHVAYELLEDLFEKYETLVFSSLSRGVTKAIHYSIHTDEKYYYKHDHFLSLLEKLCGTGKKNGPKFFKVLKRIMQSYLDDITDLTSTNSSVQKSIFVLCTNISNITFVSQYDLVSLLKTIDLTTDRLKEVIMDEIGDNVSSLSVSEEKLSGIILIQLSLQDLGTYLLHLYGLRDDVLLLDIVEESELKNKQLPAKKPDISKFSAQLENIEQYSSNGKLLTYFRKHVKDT
The test can be described thus: cross-linking; yeast cultures cross-linked with 1% formaldehyde for 30 min; Ni-NTA pulldown of HF-tagged Scc2^E822K under denaturing conditions; blot with anti-Pol30.

For test [4], the target named is human NIPBL, endogenous (human (endogenous in TK6)) (UniProt Q6KC79). The test can be described thus: co-IP; IP of endogenous NIPBL (anti-NIPBL A301-779A, Dynabeads Protein A) from TK6 lysates with benzonase; lysis 150 mM NaCl, washes 200 mM NaCl, 0.5% NP-40; also after nocodazole synchronisation and release of TP53 knockout TK6 cells (asynchronous, G1, S, G2/M).

As for “N-terminally His-tagged yeast Pol30 (PCNA) (from UniProt P15873 1-258)”, the binding entry in test [1] is given as “no binding”; in test [2], “no binding (tested: 2.5 μg His-tagged Pol30 in 0.7 ml)”.
With “Pol30 (yeast PCNA), endogenous (from UniProt P15873 1-258)”, the binding result in test [3] is listed as “binds”.
For “human PCNA, endogenous (from UniProt P12004 1-261)”, the binding result in test [4] is given as “binds”.
